# Laboratory results reported in the supplement of paper PMC6135742.
# Where a name gives a salt, the structure may show the parent alone. ± gives the standard deviation of the averaged measurements. In all, about 2,600 compounds were measured (“MBP+ mature oligodendrocyte number relative to DMSO vehicle control”: median about -0.34, highest 2% from about 13 on). The list shows a part of the results.
# Tested on: jimpy (Plp1 jimpy) mouse iPSC-derived oligodendrocyte progenitor cells
# Experiment: MBP+ mature oligodendrocyte number relative to DMSO vehicle control (SDs above negative control mean); higher = more surviving jimpy oligodendrocytes (rescue)
# Conditions: 10 µM; 3 days
# 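Also: 10 µM single dose with 3-day oligodendrocyte differentiation.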
row,Compound,MBP+ mature oligodendrocyte number
1,CC[C@H](/C=C/[C@@H](C)[C@H]1CC[C@H]2[C@@H]3CC=C4C[C@@H](O)CC[C@]4(C)[C@H]3CC[C@]12C)C(C)C [Stigmasterol],-1.84
2,O=C(Nc1cccc(Cl)c1)c1ccccn1,-1.72
3,Clc1ccc(CCC(Cn2ccnc2)Sc2c(Cl)cccc2Cl)cc1 (stereo not given) [Butoconazole nitrate],12.2
4,C[C@@]1(C(=O)Nc2ccc(F)nc2)CCCN1c1nc(Nc2cc(C3CC3)n[nH]2)c2cccn2n1,< -6.7
5,CN(C)C(=O)Nc1cccc(-c2ccc(N(C)C)cc2)c1 [Atglistatin],6.21
6,N#Cc1ccc(C(c2ccc(C#N)cc2)n2cncn2)cc1 [Letrozole],3.69
7,COc1c2occc2cc2ccc(=O)oc12 [Methoxsalen],0.343
8,CN1CCN(C2=Nc3ccccc3Oc3ccc(Cl)cc32)CC1 [Loxapine succinate],-2.83
9,CN1CCN(C2=Nc3ccccc3Oc3ccc(Cl)cc32)CC1 [Loxapine Succinate],-2.89
10,CC(C)CC(N)=O [Isovaleramide],0.407
11,Cn1cc(C(=O)OCC2CCN(CCNS(C)(=O)=O)CC2)c2ccccc21,3.57
12,OC[C@@H](O)[C@@H](O)[C@H](O)[C@@H](O)CO [Sorbitol],0.395
13,CNCC[C@H](Oc1ccc(C(F)(F)F)cc1)c1ccccc1 [S-(+)-Fluoxetine hydrochloride],-4.1
14,CC(=O)OCC(=O)[C@@]1(O)CC[C@H]2[C@@H]3CCC4=CC(=O)CC[C@]4(C)[C@H]3C(=O)C[C@@]21C [Cortisone 21-acetate],-0.825
15,CC(=O)OCC(=O)[C@@]1(O)CC[C@H]2[C@@H]3CCC4=CC(=O)CC[C@]4(C)[C@H]3C(=O)C[C@@]21C [Cortisone acetate],-0.164
16,O=C1c2ccccc2C(=O)c2c(NCCc3ccc(O)cc3)ccc(NCCc3ccc(O)cc3)c21,-4.41
17,FC(F)(F)c1ccc(/C=C/c2nc(COc3ccc(CCCCn4ccnn4)cc3)co2)cc1 [Mubritinib (TAK 165)],-4.75
18,O=C1c2c(O)cc(O)cc2OC(c2ccc(O)c(O)c2)C1O (stereo not given) [Taxifolin (Dihydroquercetin)],2.07
19,CN(C)CCCOc1nn(Cc2ccccc2)c2ccccc12 [Benzydamine HCl],-2.13
20,CC(C)(O)CC[C@@H](O)[C@](C)(O)[C@H]1CC[C@@]2(O)C3=CC(=O)[C@@H]4C[C@@H](O)[C@@H](O)C[C@]4(C)[C@H]3CC[C@]12C [20-Hydroxyecdysone],1.23
21,CNC(=O)c1nn(C)c2c1C(C)(C)Cc1cnc(Nc3ccc(N4CCN(C)CC4)cc3)nc1-2,< -6.01
22,CC1CCN=C(N)S1 (racemic) [(±)-AMT hydrochloride],0.0385
23,C[C@H]1C[C@H]2[C@@H]3CCC4=CC(=O)C=C[C@]4(C)[C@@]3(Cl)[C@@H](O)C[C@]2(C)[C@@]1(O)C(=O)CO [Beclomethasone],2.83
24,Oc1ccc(O)cc1 [Hydroquinone],-4.36
25,CN1CCN(c2cccc(Nc3nc4c(-c5ccc(S(C)(=O)=O)cc5)cccn4n3)c2)CC1,< -6.01

row,Compound,MBP+ mature oligodendrocyte number
1,COc1cc2nc(N3CCN(C(=O)C4CCCO4)CC3)nc(N)c2cc1OC (stereo not given) [Terazosin HCl],1.42
2,CN[C@@H](C)C(=O)N[C@H](C(=O)N1CCC[C@H]1C(=O)Nc1snnc1-c1ccccc1)C1CCCCC1,-0.861
3,Cc1nc(N=Nc2ccc(C(=O)O)cc2)c(COP(=O)(O)O)c(C=O)c1O,-1.07
4,NS(=O)(=O)c1cc2c(cc1Cl)NCNS2(=O)=O [Hydrochlorothiazide],0.77 ± 0.73
5,O=C(NC1CCOCC1)c1ccc(-c2cc(-c3c[nH]nc3-c3ccccn3)ccn2)cc1,-1.09
6,O=C1C(=O)N(Cc2ccc(Cl)c(Cl)c2)c2ccccc21 [Apoptosis Activator 2],-4.34
7,COc1cc(/C=C/C(=O)O)ccc1O [Ferulic Acid],-0.0525
8,C[N+]1(C)CCC(=C(c2ccccc2)c2ccccc2)CC1 [Diphemanil Methylsulfate],19.2
9,CN(C)CCc1c[nH]c2ccc(C[C@H]3COC(=O)N3)cc12 [Zolmitriptan],1.69
10,CN(C)CCC=C1c2ccccc2C=Cc2ccccc21 [Cyclobenzaprine hydrochloride],-2.87
11,O=C1c2cccc(O)c2C(=O)c2c(O)cc(CO)cc21 [Aloe-emodin],2.91
12,O=c1[nH]c(=O)n([C@H]2C[C@H](O)[C@@H](CO)O2)cc1F [Floxuridine],-1.72
13,C/C(=N\NC(=S)N1CCC1)c1ccccn1,< -6.35
14,COc1cc(C)c(/C=C/C(C)=C/C=C/C(C)=C/C(=O)O)c(C)c1C [Acitretin],1.94
15,CC(C)(F)C[C@H](N[C@@H](c1ccc(-c2ccc(S(C)(=O)=O)cc2)cc1)C(F)(F)F)C(=O)NC1(C#N)CC1 [Odanacatib (MK-0822)],-0.415
16,CC(=O)Oc1cc(C(C)C)c(OCCN(C)C)cc1C [Moxisylyte hydrochloride],0.382
17,CC(c1cc2ccccc2s1)N(O)C(N)=O (stereo not given) [Zileuton],-0.24
18,C[C@@H]1C(=O)O[C@H]2C[C@@]34[C@H]5C[C@@H](C(C)(C)C)[C@]36[C@@H](OC(=O)[C@@H]6O)O[C@@]4(C(=O)O5)[C@]21O [Ginkgolide A],-0.737
19,CC1=C(C(=O)OC2CCCCC2)C(c2ccc([N+](=O)[O-])cc2)C2=C(CC(C)(C)CC2=O)N1 (stereo not given),-4.64
20,O=C(O)C(Cc1ccccc1[N+](=O)[O-])=NNc1nc(-c2ccc(Cl)c(Cl)c2)cs1 (mixture of isomers),2.19
21,NC(=O)c1ncn([C@@H]2O[C@H](CO)[C@@H](O)[C@H]2O)c1N [Acadesine],2.68
22,CC1=C(/C=C/C(C)=C/C=C/C(C)=C/C(=O)Nc2ccc(O)cc2)C(C)(C)CCC1 [Retinoic acid p-hydroxyanilide],-4.36
23,CCn1cc(C(=O)O)c(=O)c2cc(F)c(N3CCN(C)CC3)cc21 [Pefloxacin Mesylate],1.69
24,CCOC(=O)c1ccc(N2NC(=O)C(=Cc3ccc([N+](=O)[O-])o3)C2=O)cc1,-0.354
25,CC#CCOC(=O)c1c(C)nc2sc3c(c2c1N)CCC(O)C3 (stereo not given),-3.21
